Measured values taken from PubChem BioAssay (NCATS).
Inconclusive results, whose numbers are uncertain, are shown with a selection of clear calls. For some assays here: Potencies of inconclusive entries are doubtful fits and often do not repeat. The source made the active and inactive calls. Unless noted, calls come from the whole dose curve; as a rule, active = well fitted curve in the direction sought with a large enough effect; inconclusive = small, poorly fitted or top-dose-only effect, or another doubt; inactive = no such curve, though single readings can be large; an effect the other way counts as inactive or inconclusive.

Legend:
[1] = molecular target: Furin (Homo sapiens) (UniProt P09958); assay: Furin counterscreen qHTS for Zika virus inhibitors (AID 1347149);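 note: purified recombinant full-length human furin enzyme at 5 nM; fluorescence gain from furin cutting a BOC-RVRR-AMC peptide substrate over 15 min; top concentration of the series differs between compounds; plate controls were no-inhibitor control for no effect and no-enzyme control for full effect; nearly all actives have a fitted effect of over 70% in size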
Outline: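 Counterscreen measures cleavage of 2 microM BOC-RVRR-AMC, below its ~15 microM Km, by 5 nM full-length human furin at pH 7.0 after a 15-min compound preincubation. Inhibition derives from the 15-min fluorescence increase at 37C.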

[2] = system: Zika virus NS2B-NS3 protease (unlinked complex); assay: Confirmatory screen GU AMC qHTS for Zika virus inhibitors (AID 1347153);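 note: enzyme at 25 nM with substrate at 10 µM below its Km of 18.3 µM; potency is the fitted concentration of half-maximal effect; nearly all actives have a fitted effect of over 70% in size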
Outline: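 Fluorescence change (ex 340/em 450 nm) over 15 min, ~20% substrate conversion, normalized to no-inhibitor and no-enzyme controls, then Hill-fitted. Unlinked protease at 25 nM; AMC peptide 10 µM.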

[3] = Confirmatory screen GU Rhodamine qHTS for Zika virus inhibitors qHTS (AID 1347157); note: potency is the fitted concentration of half-maximal effect; nearly all actives have a fitted effect of over 70% in size
Outline: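 Noncovalent NS2B hydrophilic domain/NS3 protease complex (25 nM final) in 10 mM Tris-HCl pH 8.0, 0.01% Tween 20, preincubated 15 min with compounds (up to 114 microM), then 1.5 microM Rhodamine110 substrate. Fluorescence change over 15 min fitted to 4-parameter Hill.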

[4] = ZIKV-mCherry secondary qHTS for Zika virus inhibitors (AID 1347158); note: potency is the fitted concentration of half-maximal effect
Outline: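 Compounds were tested in Vero monkey kidney cells infected with recombinant mCherry-expressing Zika virus at MOI 1 for 48-72 h at 37 °C. Fixed cells were nuclear-stained and imaged, and infection rate was taken as the fraction of mCherry-positive cells.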

[5] = system: Zika virus NS2B-NS3 protease (linked construct); assay: Primary screen NINDS Rhodamine qHTS for Zika virus inhibitors (AID 1347160); note: potency is the fitted concentration of half-maximal effect; nearly all actives have a fitted effect of over 55% in size
Outline: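 Enzyme (25 nM, linked NS2B-NS3) was preincubated 15 min with compound in 10 mM Tris-HCl pH 8.0, 0.01% Tween 20. Rhodamine110 substrate (1.5 microM) was then added and fluorescence read at start and after 15 min.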

[6] = Tertiary RLuc qRT-PCR qHTS assay for Zika virus inhibitors (AID 1347169); note: potency is the fitted concentration of half-maximal effect; nearly all actives have a fitted effect of over 55% in size
Outline: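 Vero cells (1,000 per well) plated overnight at 37 degrees C, treated with compound in DMSO, then infected with recombinant ZIKV-RLuc (Cambodian) at MOI 1-2 for 48-72 hrs. Live-cell Renilla luciferase substrate added; luminescence read after 1-1.5 hrs.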

[7] = molecular target: Cytochrome P450 2D6 (Homo sapiens) (UniProt P10635); assay: Cytochrome P450 family 2 subfamily D member 6 (CYP2D6) small molecule antagonists: luciferase biochemical (cell-free) qHTS assay (AID 1645840; active = well fitted curve in the direction sought with a large enough effect in the repeat runs; inconclusive = weak or mixed curves; inactive = no such curve, though single readings can be large; an effect the other way counts as inactive or inconclusive; note: nearly all actives have a fitted effect of over 55% in size; note: potency is the fitted concentration of half-maximal effect; for activity change, negative = inhibition: % is set by controls: 0 for no effect and ±100 for the full control effect)
Outline: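 P450-Glo CYP2D6 system: proluciferin substrate converted by enzyme to luciferin, read by luminescence proportional to activity. Enzyme-substrate mix with compound 10 min at room temperature, then NADPH regeneration 1 h before detection reagent.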

[8] = molecular target: Cytochrome P450 2C9 (Homo sapiens) (UniProt P11712); assay: Cytochrome P450 family 2 subfamily C member 9 (CYP2C9) small molecule antagonists: luciferase biochemical (cell-free) qHTS assay (AID 1645842; active = well fitted curve in the direction sought with a large enough effect in the repeat runs; inconclusive = weak or mixed curves; inactive = no such curve, though single readings can be large; an effect the other way counts as inactive or inconclusive; note: potency is the fitted concentration of half-maximal effect; nearly all actives have a fitted effect of over 55% in size)
Outline: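 P450-Glo CYP2C9 system: proluciferin substrate with enzyme in mix containing 0.4% BSA, 10 min at room temperature, then NADPH regeneration solution added and incubated 1 h at 37C. Detection reagent stopped reaction; luminescence read after 20 min as RLU.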

[9] = Primary qHTS for inhibitors of nuclear receptor binding SET domain protein 2 (NSD2) in an isogenic RCH-ACV NSD2 p.E1099K mutant (9B) (AID 1645876); details: activity change, negative = viability loss: at 44.9 µM (top of the series) unless noted; note: nearly all actives have a fitted effect of over 70% in size; note: potency is the fitted concentration of half-maximal effect; for activity change, negative = viability loss: % is set by controls: 0 for no effect and ±100 for the full control effect
[10] = Primary qHTS for inhibitors of nuclear receptor binding SET domain protein 2 (NSD2) in an RCH-ACV wild type WT cells (2C) (AID 1645877); details: activity change, negative = cell killing: at 44.9 µM (top of the series) unless noted; note: nearly all actives have a fitted effect of over 70% in size; note: potency is the fitted concentration of half-maximal effect
[11] = molecular target: Glutathione peroxidase 1 (Homo sapiens) (UniProt P07203); assay: Primary qHTS Assay for Inhibitors of Recombinant Selenoprotein Glutathione Peroxidase 1 (GPX1) (AID 1845191); note: potency is the fitted concentration of half-maximal effect; nearly all actives have a fitted effect of over 65% in size
Outline: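 GR-coupled readout: NADPH consumption tracked by fluorescence, ex 340/em 450 nm, at t=0 and after 15 min at RT. Final mix 10 nM GPX1, 1 mM GSH, 0.5 mM CHP, 0.5 mM NADPH, 100 nM GR, 0.01% BSA, following 30 min enzyme–compound preincubation.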

[12] = system: HaCat; assay: Cytotoxic Profiling of Annotated Libraries Using Quantitative High-Throughput Screening (AID 1296008); details: Five cell lines viability, CellTiter-Glo ATP luminescence, 48-72 h; max response: hits give low values; note: nearly all actives have a fitted effect of over 60% in size; note: potency is the fitted concentration of half-maximal effect; for max response: % is set by controls: 0 for no effect and ±100 for the full control effect
Outline: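 Cells exposed to compounds for 48 or 72 hr at 37 degrees Celsius. Viability read as ATP-coupled luminescence with CellTiter-Glo after 10 min at room temperature.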

[13] = system: Zika virus NS2B-NS3 protease (unlinked complex); assay: Primary screen GU Rhodamine qHTS for Zika virus inhibitors: Unlinked NS2B-NS3 protease assay (AID 1347159); details: Recombinant ZIKV NS2B-NS3 protease, Rhodamine110 substrate fluorescence; activity change, negative = inhibition: at 107 µM (top of the series); note: nearly all actives have a fitted effect of over 60% in size; note: potency is the fitted concentration of half-maximal effect; for activity change, negative = inhibition: % is set by controls: 0 for no effect and ±100 for the full control effect
Outline: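 Enzyme 25 nM in Tris-HCl pH 8.0 + 0.01% Tween 20; compounds up to 114 microM, 15 min RT dark; + Rhod110 substrate 1.5 microM; read t0 and 15 min; delta fluorescence → % inhibition → 4-parameter Hill fit.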

[14] = molecular target: Phospholipid hydroperoxide glutathione peroxidase GPX4 (Homo sapiens) (UniProt P36969); assay: Primary qHTS Assay for Inhibitors of Recombinant Selenoprotein Glutathione Peroxidase 4 (GPX4) (AID 1845192); details: activity change, negative = inhibition: at 50 µM (top of the series) unless noted; note: % is set by controls: 0 for no effect and ±100 for the full control effect; nearly all actives have a fitted effect of over 65% in size
Outline: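 Steps: GPX4 plus compound, 30 min RT; add GR/GSH/NADPH master mix; start with cumene hydroperoxide; read 340/450 nm fluorescence at 0 and 15 min. Finals were 200 nM GPX4, 1 mM GSH, 0.5 mM CHP, 0.5 mM NADPH, 100 nM GR.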

[15] = Primary fluorescence-based thiol-reactive (MSTI) qHTS assay for identification of artifact compounds. (AID 1845221);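 note: potency is the fitted concentration of half-maximal effect; thiol-reactive compounds lower the probe fluorescence signal; nearly all actives have a fitted effect of over 65% in size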
Outline: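 MSTI probe at 4 uM final in 2% DMSO/PBS pH 7.4; compounds, 1 h at room temperature in dark. Fluorescence Ex/Em 525/598 nm, normalised to Acetyl-MSTI and MSTI, fitted to 4-parameter Hill.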

[16] = system: Tov-21-G; assay: Primary qHTS to identify gynecologic anti-cancer compounds using libraries of approved drugs and bioactive compounds (AID 1345084); details: Gynecologic cancer cell panel viability, ATPlite luminescence, 48 h; series mostly up to 57.5 µM; note: nearly all actives have a fitted effect of over 55% in size; note: potency is the fitted concentration of half-maximal effect
Outline: (§1)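 Cells, 1,000 per well, plated 16 h, then exposed 48 h at 37 C to compounds. Viability by ATPlite luminescence after 15 min at room temperature.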

[17] = system: Tov112D; assay: as above; details: Gynecologic cancer cell panel viability, ATPlite luminescence, 48 h; series mostly up to 57.5 µM
Outline: as §1

[18] = qHTS of pediatric cancer cell lines to identify multiple opportunities for drug repurposing: Primary screen for SJ-GBM2 cells (AID 1347091);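 note: plate controls were DMSO neutral control for no effect and bortezomib for full effect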
Outline: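 Viability measured as metabolically active cells via CellTiter-Glo luminescence following 48 hours of compound exposure, 11-point dilutions in confirmatory testing. 500-1,000 cells/well plated 5 hours before dosing; controls were DMSO and 2.3 µM bortezomib.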

[19] = qHTS of pediatric cancer cell lines to identify multiple opportunities for drug repurposing: Primary screen for Saos-2 cells (AID 1347097); details: Saos-2 viability, CellTiter-Glo ATP luminescence, 48 h; activity change, negative = cytotoxic: at 46 µM (top of the series); note: % is set by controls: 0 for no effect and ±100 for the full control effect; nearly all actives have a fitted effect of over 40% in size
Outline: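 Primary screen of approved and investigational compounds on cells in growth media at 37 degrees C, 5% CO2. MIPE set at 11-point and NPC set at 8-point dilutions; viability scored by ATP-based luminescence at 48 hours.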

[20] = qHTS of pediatric cancer cell lines to identify multiple opportunities for drug repurposing: Primary screen for LAN-5 cells (AID 1347100);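 note: plate controls were DMSO neutral control for no effect and bortezomib positive control for full effect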
Outline: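 Viability after 48 h compound treatment at 37C, 500-1,000 cells/well, read as ATP luminescence with CellTiter-Glo. Primary screens used 11-point (MIPE, 0.78 nM-46 µM) or 8-point (NPC, 0.59 nM-46 µM) final concentrations; follow-up screens used 11-point dilutions.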

[21] = qHTS of pediatric cancer cell lines to identify multiple opportunities for drug repurposing: Primary screen for BT-12 cells (AID 1347101);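 note: plate controls were DMSO for no effect and bortezomib positive control for full effect; nearly all actives have a fitted effect of over 25% in size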
Outline: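 Cells (500-1,000/well) rested 5 h, then received compounds for 48 h; metabolically active cells were measured by CellTiter-Glo luminescence. Final concentrations spanned up to 46 µM (MIPE, 11-point) or 0.59 nM-46 µM (NPC, 8-point) in primary screens, 11-point in follow-ups.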

[22] = A High-Content qHTS Against Drug Library for the Identification of Small Molecules that Inhibit DYT1 Early Onset Primary Dystonia-Associated Cell Pathology (AID 1645839; calls by dose curve; note: potency is the fitted concentration of half-maximal effect)
Outline: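 Cells were seeded and left for 24 h, then dosed with compound alongside tetracycline induction of mutant EGFP-TorsinA. They were incubated for 48 h, fixed in 4% paraformaldehyde, permeabilized and imaged for mislocalization (%pathology) and cell count.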
Tags give direction and shape of the fitted curve.

Chain of UniProt P10635 (P10635 whole entry, looked up): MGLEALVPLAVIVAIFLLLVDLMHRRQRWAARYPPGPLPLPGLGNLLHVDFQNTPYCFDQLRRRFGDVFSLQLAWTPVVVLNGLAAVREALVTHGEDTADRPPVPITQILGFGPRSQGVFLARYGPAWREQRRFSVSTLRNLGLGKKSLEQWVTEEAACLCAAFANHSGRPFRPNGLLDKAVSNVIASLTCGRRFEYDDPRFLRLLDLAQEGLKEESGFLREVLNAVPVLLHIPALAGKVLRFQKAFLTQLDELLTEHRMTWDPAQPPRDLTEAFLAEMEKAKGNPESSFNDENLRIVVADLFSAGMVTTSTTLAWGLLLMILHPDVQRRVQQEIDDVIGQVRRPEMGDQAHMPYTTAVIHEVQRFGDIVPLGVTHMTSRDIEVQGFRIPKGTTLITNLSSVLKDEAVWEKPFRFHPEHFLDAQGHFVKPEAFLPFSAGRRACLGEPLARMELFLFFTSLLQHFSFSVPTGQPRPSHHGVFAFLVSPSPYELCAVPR
Chain of UniProt P07203 (P07203 whole entry, looked up): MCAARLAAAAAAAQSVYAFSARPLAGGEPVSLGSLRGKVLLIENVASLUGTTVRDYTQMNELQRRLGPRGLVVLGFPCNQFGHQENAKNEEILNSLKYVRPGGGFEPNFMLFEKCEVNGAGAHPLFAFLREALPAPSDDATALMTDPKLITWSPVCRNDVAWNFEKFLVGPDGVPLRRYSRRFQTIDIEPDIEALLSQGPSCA
Chain of UniProt P11712 (P11712 whole entry, looked up): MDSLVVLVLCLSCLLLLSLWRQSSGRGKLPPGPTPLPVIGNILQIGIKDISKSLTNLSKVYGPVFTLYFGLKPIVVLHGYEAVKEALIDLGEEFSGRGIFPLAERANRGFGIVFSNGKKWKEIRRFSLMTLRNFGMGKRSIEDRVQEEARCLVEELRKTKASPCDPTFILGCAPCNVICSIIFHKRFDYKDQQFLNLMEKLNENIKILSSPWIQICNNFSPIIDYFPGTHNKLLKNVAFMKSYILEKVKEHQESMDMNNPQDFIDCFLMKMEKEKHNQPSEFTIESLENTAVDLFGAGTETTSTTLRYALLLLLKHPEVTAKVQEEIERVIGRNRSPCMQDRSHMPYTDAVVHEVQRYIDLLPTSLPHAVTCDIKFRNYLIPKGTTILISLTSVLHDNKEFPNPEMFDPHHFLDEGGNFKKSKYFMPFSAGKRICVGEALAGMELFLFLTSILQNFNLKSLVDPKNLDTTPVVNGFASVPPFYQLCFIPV
Chain of UniProt P09958 (P09958 whole entry, looked up): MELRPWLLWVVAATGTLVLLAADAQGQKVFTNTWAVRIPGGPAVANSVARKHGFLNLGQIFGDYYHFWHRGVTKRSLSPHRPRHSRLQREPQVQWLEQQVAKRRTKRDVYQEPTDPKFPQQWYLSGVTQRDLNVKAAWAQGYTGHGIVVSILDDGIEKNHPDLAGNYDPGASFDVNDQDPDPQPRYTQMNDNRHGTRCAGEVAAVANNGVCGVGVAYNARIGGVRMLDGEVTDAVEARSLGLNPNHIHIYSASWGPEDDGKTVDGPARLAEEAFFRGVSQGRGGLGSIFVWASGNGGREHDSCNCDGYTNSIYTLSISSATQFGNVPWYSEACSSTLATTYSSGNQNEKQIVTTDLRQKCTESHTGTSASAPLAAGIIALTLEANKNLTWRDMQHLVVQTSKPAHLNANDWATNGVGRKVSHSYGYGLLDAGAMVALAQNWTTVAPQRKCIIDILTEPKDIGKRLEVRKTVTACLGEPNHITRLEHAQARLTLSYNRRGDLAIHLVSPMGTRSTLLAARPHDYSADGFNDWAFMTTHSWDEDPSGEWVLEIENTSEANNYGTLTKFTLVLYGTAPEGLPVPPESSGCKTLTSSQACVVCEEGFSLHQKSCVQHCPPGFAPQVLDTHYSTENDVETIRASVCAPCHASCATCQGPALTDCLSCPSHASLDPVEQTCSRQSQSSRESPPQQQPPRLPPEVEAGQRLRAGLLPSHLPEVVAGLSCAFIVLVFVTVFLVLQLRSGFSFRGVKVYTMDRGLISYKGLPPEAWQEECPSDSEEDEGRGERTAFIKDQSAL
Chain of UniProt P36969 (P36969 whole entry, looked up): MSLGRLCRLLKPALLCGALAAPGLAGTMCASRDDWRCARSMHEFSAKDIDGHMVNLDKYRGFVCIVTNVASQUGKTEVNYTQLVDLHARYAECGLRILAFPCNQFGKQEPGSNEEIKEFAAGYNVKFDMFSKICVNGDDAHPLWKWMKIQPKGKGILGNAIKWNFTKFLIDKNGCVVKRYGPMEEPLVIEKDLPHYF

CCOc1c2c(c(OCC)c3ccccc13)C(=O)N(c1ccc(CC(=O)NS(=O)(=O)c3ccccc3)cc1)C2
inactive: Potency [1] | Potency [9] | Potency [10] | max response [12] -7.44%
inconclusive: Potency [4] 20 µM [inhibitor, partial curve, poor fit] | Potency [6] 37 µM [inhibitor, single point] | Potency [7] 37.9 µM [inhibitor, partial curve, poor fit] | Potency [8] 26.8 µM [inhibitor, single point] | Potency [11] 10.1 µM [inhibitor, partial curve, poor fit]
active: Potency [2] 44.1 µM | Potency [3] 4.94 µM | Potency [5] 8.91 µM

Cc1c2cc(c(C(=O)O)c1C)OC1OC(C(O)C(O)C1O)C(O)C(O)C1OC(O2)C(O)C(O)C1O (stereo not given)
inconclusive: Potency [15] 5.19 µM [inhibitor, partial curve] | Potency [12] 0.0112 µM [inhibitor, full curve, poor fit]
inactive: Potency [13] | Potency [9] | Potency [14]

CC1C=CC2CCCCC2C1CCC1CC(O)CC(=O)O1 (stereo not given)
inactive: Potency [9]
inconclusive: Potency [13] 44.7 µM [inhibitor, partial curve] | Potency [5] 20 µM [inhibitor, partial curve] | Potency [15] 37.7 µM [inhibitor, partial curve, poor fit] | Potency [12] 6.51 µM [inhibitor, single point]

COc1cc2ncnc(Nc3ccc(O)cc3)c2cc1OC
inactive: Potency [17]
inconclusive: Potency [9] 18.3 µM [inhibitor, single point] | Potency [10] 29 µM [inhibitor, single point] | Potency [15] 21.2 µM [inhibitor, partial curve, poor fit] | Potency [12] 8.2 µM [inhibitor, partial curve] | Potency [16] 15.8 µM [cytotoxic, partial curve, poor fit]

CCCCCN(CCCOC)C(=O)C(CCC(=O)O)NC(=O)c1ccc(Cl)c(Cl)c1 (stereo not given)
inactive: Potency [18] | Potency [19] | Potency [20] | Potency [21] | Potency [7]
inconclusive: Potency [22] 17.8 µM [inhibitor, partial curve, poor fit] | Potency [12] 0.841 µM [inhibitor, full curve, poor fit]
